Among all 310,000 compounds or so, about 14,000 (4.5%) showed an effect of 50% or more. The effect is printed as a negative number. Some of the results follow.
What follows are compounds tested against human ether-à-go-go-related gene (hERG) potassium channel (human, UniProt Q12809) (assay: primary screen, population patch clamp on CHO cells stably expressing hERG).
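Also: peak tail current of the secondary pulse compared with the same well before compound.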

human ether-à-go-go-related gene (hERG) potassium channel, sequence (Q12809 whole entry, looked up): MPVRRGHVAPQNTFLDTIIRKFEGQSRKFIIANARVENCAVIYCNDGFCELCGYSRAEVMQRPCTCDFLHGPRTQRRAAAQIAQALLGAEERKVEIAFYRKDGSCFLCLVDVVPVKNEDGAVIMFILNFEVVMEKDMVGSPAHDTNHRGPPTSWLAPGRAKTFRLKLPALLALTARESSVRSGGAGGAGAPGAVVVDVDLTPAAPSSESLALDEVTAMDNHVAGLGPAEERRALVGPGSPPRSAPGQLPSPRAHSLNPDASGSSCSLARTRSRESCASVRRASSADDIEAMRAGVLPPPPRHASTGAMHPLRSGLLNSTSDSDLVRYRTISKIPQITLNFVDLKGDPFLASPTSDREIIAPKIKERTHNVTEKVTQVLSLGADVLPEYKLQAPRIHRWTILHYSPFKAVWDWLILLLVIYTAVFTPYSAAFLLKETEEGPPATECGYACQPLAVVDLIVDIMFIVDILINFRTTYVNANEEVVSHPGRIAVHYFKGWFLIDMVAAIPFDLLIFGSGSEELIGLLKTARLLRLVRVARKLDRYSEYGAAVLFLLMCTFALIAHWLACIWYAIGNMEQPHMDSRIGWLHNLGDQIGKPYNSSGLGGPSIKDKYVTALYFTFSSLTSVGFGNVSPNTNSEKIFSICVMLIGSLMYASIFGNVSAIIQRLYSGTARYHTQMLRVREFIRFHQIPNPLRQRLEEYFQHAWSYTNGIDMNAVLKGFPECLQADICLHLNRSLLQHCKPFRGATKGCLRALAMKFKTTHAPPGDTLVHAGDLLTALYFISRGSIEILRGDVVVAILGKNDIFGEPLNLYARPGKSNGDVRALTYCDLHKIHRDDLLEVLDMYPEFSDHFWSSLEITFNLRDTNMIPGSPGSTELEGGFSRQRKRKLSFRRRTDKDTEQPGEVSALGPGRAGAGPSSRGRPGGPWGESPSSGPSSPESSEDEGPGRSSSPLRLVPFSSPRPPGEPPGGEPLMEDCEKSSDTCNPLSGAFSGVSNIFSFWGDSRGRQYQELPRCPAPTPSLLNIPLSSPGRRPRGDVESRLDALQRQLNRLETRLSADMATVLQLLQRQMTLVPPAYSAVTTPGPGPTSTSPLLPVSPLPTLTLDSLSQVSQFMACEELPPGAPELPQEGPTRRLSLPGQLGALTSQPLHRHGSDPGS

Compound	hERG current change (%, negative = inhibition) at 10uM [%]
CCN(CC)C(=O)C(=O)Nc1cccc(Br)c1	8.53
O=c1[nH]c2ccccc2c(=O)n1Cc1ccccc1	21.9
C/C(=N\NC(=O)c1ccc(=O)[nH]n1)c1cccnc1	6.79
Cn1c(=O)[nH]c(=O)c2c1nc(CN(Cc1ccccc1)Cc1ccccc1)n2CCN1CCOCC1	-16.6
CCOc1ccc(C(=O)CCC(=O)NC2=NCCS2)cc1	6.73
Cc1cccc(CCNC(=O)CCS(=O)(=O)c2ccc(Br)cc2)c1	8.8
CCCCNC(=O)CCCCCn1c(=O)[nH]c2cc(C(=O)OC)ccc2c1=O	10.2
Cc1cccc(S(=O)(=O)Nc2ccc(C)c3c2OC(C)(C)C3)c1	-14.5
O=C(CSc1n[nH]c(-c2ccncc2)n1)Nc1ccccc1	4.93
Cc1cc(C)c2c(c1)NC(=O)C2(O)CC(=O)c1cccs1 (centres unmarked)	-1.5
O=C(CSc1nnc2sc3ccccc3n12)N1CCN(c2ccccc2)CC1	-25.8
O=C(NNC(=O)c1ccccc1-n1cccc1)c1ccccc1	-18.3
CC1CN(C(=O)COC(=O)c2cccs2)CC(C)O1 (centres unmarked)	21.5
Cn1c(C(=O)OC(C(=O)NC(C)(C)C)c2cccnc2)cc2sccc21 (centres unmarked)	8.92
COc1cccc2c(C)nc(Nc3nc(CSc4nnc(C)s4)cc(=O)[nH]3)nc12	7.84
COc1cccc(-c2cc(C(=O)NCCN3CCOCC3)no2)c1	-8.92
Cc1cc(NCCCN2CCOCC2)n2ncc(-c3ccccc3)c2n1	-21
COC(=O)c1cc(C#N)c(N(C)Cc2ccccc2)nc1C	8.44
Cc1ccc2nc3c(cc(C#N)c(=O)n3-c3nccs3)c(=O)n2c1	2.51
CCOc1ccc(N(CC(=O)N2CCOCC2)S(=O)(=O)c2ccc(F)cc2)cc1	-16.7
COc1ccc(/C=N/NC(=O)CC(=O)NCc2cccnc2)cc1	-0.491
COc1ccc(C(=O)N2CCNC(=O)C2CC(=O)Nc2ccc(C)cc2)cc1 (centres unmarked)	12.6

Compound	hERG current change (%, negative = inhibition) at 10uM [%]
O=C(O)c1ccccc1-c1ccccc1C(=O)Nc1ccccc1Br	17.2
CN(C)C(=O)Cn1c(SCC(=O)N2CCCc3ccccc32)nc2ccccc21	-7.08
CC(C)N1CCN(Cc2ccccc2C(F)(F)F)CC1CCO (centres unmarked)	-17.1
C=CCNC(=S)NNC(=O)COc1ccc(Br)cc1	10.2
Cc1cccc(C(=O)NC(NC(=S)Nc2ccc(S(N)(=O)=O)cc2)C(Cl)(Cl)Cl)c1 (centres unmarked)	19.7
O=C(NCCCC1CCCC1)C1CCC(=O)N(Cc2cccc(C(F)(F)F)c2)C1 (centres unmarked)	-9.84
COc1ccc(-c2cc(C)no2)cc1S(=O)(=O)N1CCN(c2ccccn2)CC1	-63.7
CCC(C)[C@H]1CN=C(N)N1CCCc1cc(OC)c(OC)c(OC)c1 (some centres unmarked)	10.1
COC(=O)C(NC(=O)c1ccco1)(Nc1nc(C)cs1)C(F)(F)F (centres unmarked)	-8.46
Cc1ccc(CN(C(=O)N2CCN(C)CC2)S(=O)(=O)c2ccc(C)cc2)cc1	3.34
CCCCn1c(N)c(N(CCOC)C(=O)CN2c3ccccc3CC2C)c(=O)[nH]c1=O (centres unmarked)	16.8
Cc1cc2c(cc1C)NC(c1c(C)n(C)n(-c3ccccc3)c1=O)C1=C(CC(C)(C)CC1=O)N2 (centres unmarked)	-8.97
COC(=O)Cc1ccc(NC(C)=O)cc1	8.79
O=C(Nc1ncccc1O)c1ccc2c(c1)OCCO2	21.1
Cc1ccc(S(=O)(=O)NCCSCc2ccco2)cc1	-4.42
Cc1ccc(S(=O)(=O)N2CCCN(S(=O)(=O)c3ccc(C)cc3)CC2)cc1	-19.5
O=C1NC2=C(C(=O)CCC2)C(c2ccccc2)N1 (centres unmarked)	20.2
Cc1csc(C(=O)O)c1NC(=O)c1ccc(F)cc1	1.02
O=S(=O)(Nc1ccc2c(c1)OCO2)c1ccc(F)c(F)c1	-24
CN(C)CCCNS(=O)(=O)c1ccc(Oc2ncc(C(F)(F)F)cc2Cl)cc1	-26.2
COc1ccc(CNC(=O)C(CCSC)NS(=O)(=O)c2ccccc2F)cc1 (centres unmarked)	-2.32
Cc1cc(NC(=O)c2ccc(N3CCCC3)c([N+](=O)[O-])c2)no1	21.9

Reference: publication PMC4336329 (PLoS ONE, 2015)
